Measured values: publication PMC4336329 (PLoS ONE, 2015)
Hit rate of the full screen: of about 310,000 compounds, about 14,000 (4.5%) showed an effect of 50% or more. The effect is printed as a negative number. The list shows a part of the results.

molecular target: human ether-à-go-go-related gene (hERG) potassium channel (human, UniProt Q12809); test: primary screen, population patch clamp on CHO cells stably expressing hERG
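Further: peak tail current of the secondary pulse compared with the same well before compound.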

human ether-à-go-go-related gene (hERG) potassium channel, sequence (Q12809 whole entry, looked up): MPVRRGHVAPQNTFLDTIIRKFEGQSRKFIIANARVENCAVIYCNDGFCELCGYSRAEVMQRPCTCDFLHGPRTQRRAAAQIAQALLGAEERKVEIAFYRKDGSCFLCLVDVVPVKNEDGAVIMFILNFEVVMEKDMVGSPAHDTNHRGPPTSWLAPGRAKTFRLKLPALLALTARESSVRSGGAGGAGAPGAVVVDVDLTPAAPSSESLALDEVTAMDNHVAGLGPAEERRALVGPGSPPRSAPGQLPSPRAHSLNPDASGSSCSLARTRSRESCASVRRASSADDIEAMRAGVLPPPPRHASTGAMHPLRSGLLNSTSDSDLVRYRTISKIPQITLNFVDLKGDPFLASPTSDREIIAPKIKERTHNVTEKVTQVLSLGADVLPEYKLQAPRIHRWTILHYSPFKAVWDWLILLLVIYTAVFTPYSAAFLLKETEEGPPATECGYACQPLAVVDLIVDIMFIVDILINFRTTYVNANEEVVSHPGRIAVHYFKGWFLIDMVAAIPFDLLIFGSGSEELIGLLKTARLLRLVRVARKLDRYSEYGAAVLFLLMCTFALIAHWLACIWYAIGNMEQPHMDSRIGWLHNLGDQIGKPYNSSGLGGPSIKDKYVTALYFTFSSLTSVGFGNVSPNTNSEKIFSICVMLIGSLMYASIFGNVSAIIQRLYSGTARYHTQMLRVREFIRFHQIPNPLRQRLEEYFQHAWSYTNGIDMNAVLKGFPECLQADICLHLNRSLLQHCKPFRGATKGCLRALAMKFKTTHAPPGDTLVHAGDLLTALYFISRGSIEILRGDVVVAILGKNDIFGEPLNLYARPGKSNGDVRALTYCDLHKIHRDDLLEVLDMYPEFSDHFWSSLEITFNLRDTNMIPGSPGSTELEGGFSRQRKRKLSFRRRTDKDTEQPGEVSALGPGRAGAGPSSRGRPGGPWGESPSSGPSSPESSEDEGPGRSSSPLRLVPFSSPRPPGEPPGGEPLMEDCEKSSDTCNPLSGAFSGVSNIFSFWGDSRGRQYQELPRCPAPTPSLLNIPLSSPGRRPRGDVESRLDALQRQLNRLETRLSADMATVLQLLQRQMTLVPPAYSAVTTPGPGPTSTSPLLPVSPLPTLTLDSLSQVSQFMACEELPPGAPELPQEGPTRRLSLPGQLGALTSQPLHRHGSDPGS

Structure (SMILES)	hERG current change (%, negative = inhibition) at 10uM [%]
CN(c1ccc(OCC(=O)NC2=NCCS2)cc1)S(=O)(=O)c1ccc(F)cc1	-2.78
NC(=O)c1cc2cc(Cl)ccc2o/c1=N/NC(=O)c1cccs1	-11.8
O=C(CN1CCN(Cc2cccc3ccccc23)CC1)NCCc1ccccc1	-26
CCCCCn1c(SC(C)C(C)=O)nc2c1c(=O)[nH]c(=O)n2C (stereo not shown)	-92.5
Cc1cc(C)nc(N/N=C/C2=C(N3CCOCC3)C(=C\c3ccc(Cl)cc3)/CC2)n1.Cl	-31.4
O=C(CCn1c2c(c3ccccc31)CCCC2)NNC(=O)c1ccccc1[N+](=O)[O-]	-16.9
CCOc1ccc(NC(=O)CN(C)C(=O)CC2CCCC2)cc1OCC	2.43
O=C(CSc1cc(Cl)ccc1Cl)NC1CCCc2ccccc21 (stereo not shown)	20.9
CCN(CC(=O)Nc1ccccc1OC)C(=O)CN1C(=O)NC(C)(c2ccc(C)cc2)C1=O (stereo not shown)	-14.2
O=C(CN1CCN(S(=O)(=O)c2ccc(Br)cc2)CC1)Nc1ccccc1F	-62.5
c1ccc(CN2CCN(Cc3nnc(-c4ccccc4)o3)CC2)cc1	-22.1
O=C(O)Cn1nc(-c2ccccc2)cc1-c1ccccc1	13.9
CSc1cc(-c2ccccc2)n(Cc2ccc(Cl)cc2Cl)c(=O)c1C#N	1.66
CCOC(=O)c1cnc2ccc(OCC)cc2c1NCCN1CCOCC1.Cl	-67.9
COc1ccc(NC(=S)NCCCN2CCCC2)cc1	5.95
O=c1cc(N2CCc3ccccc32)[nH]c(=O)n1Cc1ccc(F)cc1	9.46
COc1ccc(S(=O)(=O)NCC2CCCO2)cc1NC(=O)c1ccccc1F (stereo not shown)	19.1
Cc1ccc(N(C(=O)CNC(=O)c2ccco2)C(C(=O)NC2CCCC2)c2ccncc2)c(C)c1 (stereo not shown)	14.6
Cc1noc(C(=O)N(C)c2ccccc2)c1Cl	27.2
CCOC(=O)c1c(C)oc2ccc(O)cc12	1.56
CCCCn1c(N)c(N(CC)C(=O)c2cccc(F)c2)c(=O)[nH]c1=O	12.7
CCS(=O)(=O)N1Cc2ccccc2CC1C(=O)Nc1nc(C)cs1 (stereo not shown)	13.2

Structure (SMILES)	hERG current change (%, negative = inhibition) at 10uM [%]
Cc1cc(Oc2ccccc2)nc(SCC(=O)Nc2ccc(Cl)c(Cl)c2)n1	2.06
CC12CCC(=O)N1C(C(=O)NNC(=O)c1ccccc1F)CS2 (stereo not shown)	0.435
Cc1ccc(S(=O)(=O)N(C)C)cc1NC(=S)Nc1cccc2ccccc12	-5.33
COc1ccccc1N1CCN(C(=O)c2onc(C)c2Cl)CC1	-16.3
COCCCNC(=S)N1CCN(c2nc3ccccc3s2)CC1	-3.64
O=C(NCCC1=CCCCC1)c1cc(S(=O)(=O)N2CCOCC2)ccc1F	-26.1
COc1ccc(C(=O)N2CCCC(C(N)=O)C2)cc1S(=O)(=O)N1CCOCC1 (stereo not shown)	13.1
COc1ccc(CN(CC(=O)NCc2ccco2)C(=O)CNS(=O)(=O)c2ccc(C)cc2)cc1	-63.3
CC(C)(C)c1ccc(OCC(O)CN2CCc3ccccc3C2)cc1.Cl (stereo not shown)	-50.3
Cc1nn(-c2ccc(C(=O)OC(C)C)cc2)c(C)c1[N+](=O)[O-]	4.98
S=C(NCCc1ccccc1)Nc1ccccc1Cl	-2.31
Cc1cc2c(cc1S(=O)(=O)Nc1cccc(C)c1C)n(C)c(=O)c(=O)n2C	-26.9
CC1CC(C)CN(S(=O)(=O)c2ccc(C(=O)Nc3nnc(C4CC4)o3)cc2)C1 (stereo not shown)	-1.23
CCN(CC(=O)Nc1ccc2c(c1)OCCO2)C(=O)/C=C/c1ccc([N+](=O)[O-])cc1	-39.9
Cc1cc2occ(CC(=O)NC3=NCCS3)c2cc1C(C)C	7.45
CCC(CC)C(=O)Nc1cccc(/C(C)=N\NC(=O)c2ccc(C)s2)c1	5.9
Cc1cc(C)cc(N(CC(=O)NCc2ccco2)S(=O)(=O)c2ccccc2)c1	-40.9
Cc1ccc(NC(=O)CSc2nc3[nH]ncc3c(=O)[nH]2)cc1Cl	3.67
Cc1ccc(C(=O)c2cc([N+](=O)[O-])ccc2N2CCN(C)CC2)cc1	-64.5
COc1ccc(CC(=O)O/N=C(\N)Cc2ccc([N+](=O)[O-])cc2)cc1	-46.5
COCCNC(=O)C(c1ccc(C)cc1)N(Cc1cccs1)C(=O)CCC(=O)Nc1ccccn1 (stereo not shown)	-0.699
